Test results published in PubChem BioAssay (NCI).
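Results reflect a 48-hour exposure of cells in 96-well plates to compound at five concentrations. At the TGI there is no net growth.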

Columns and labels:
Experiment in all cases: NCI-60 cell line screen, 48 h
[1] = tested on: NCI-H226 lung
[2] = tested on: OVCAR-4 ovarian
[3] = tested on: SR leukemia
[4] = tested on: SNB-19 CNS
[5] = tested on: HCT-116 colon
[6] = tested on: KM12 colon
[7] = tested on: NCI-H522 lung
[8] = tested on: EKVX NSCLC
[9] = tested on: TK-10 renal
[10] = tested on: PC-3 prostate
[11] = tested on: SNB-75 CNS
[12] = tested on: MALME-3M melanoma
[13] = tested on: OVCAR-5 ovarian
[14] = tested on: A498 renal
[15] = tested on: UACC-257 melanoma
[16] = tested on: SF-268 CNS
[17] = tested on: HOP-92 NSCLC
[18] = tested on: NCI/ADR-RES ovarian
[19] = tested on: A549 NSCLC
[20] = tested on: MDA-MB-231 breast
[21] = tested on: SK-MEL-28 melanoma
[22] = tested on: MOLT-4 leukemia
[23] = tested on: LOX IMVI melanoma
[24] = tested on: BT-549 breast
[25] = tested on: SN12C renal
[26] = tested on: RXF 393 renal
[27] = tested on: ACHN renal
[28] = tested on: CAKI-1 renal
[29] = tested on: HCC-2998 colon
[30] = tested on: HL-60(TB) leukemia
[31] = tested on: NCI-H460 lung
[32] = tested on: CCRF-CEM leukemia
[33] = tested on: HOP-62 NSCLC
[34] = tested on: HCT-15 colon
[35] = tested on: DU-145 prostate
[36] = tested on: COLO 205 colon
[37] = tested on: MCF7 breast
[38] = tested on: UO-31 renal
[39] = tested on: HS 578T breast
[40] = tested on: OVCAR-3 ovarian
[41] = tested on: IGROV1 ovarian
[42] = tested on: 786-0 renal
[43] = tested on: RPMI-8226 leukemia
[44] = tested on: SF-295 CNS
[45] = tested on: OVCAR-8 ovarian
[46] = tested on: SF-539 CNS
[47] = tested on: HT29 colon
[48] = tested on: MDA-N
[49] = tested on: SW-620 colon
[50] = tested on: MDA-MB-435
[51] = tested on: K-562 leukemia
[52] = tested on: U251 CNS
[53] = tested on: SK-MEL-5 melanoma

Measured: TGI

Cc1ccc2[nH]c3c(c2c1)CC(=O)Nc1ccccc1-3
> 100 µM: all assays above
